Results as given in patent US12043670B2, “Anti-BCMA antibody-drug conjugates and methods of use” (Eisai R&D Management Co., Ltd., priority 2020, dated 2024).

What was measured:
[1] = Freeze-thaw testing (DAR, aggregation, concentration); format: physicochemical; conditions: histidine/pH 6.0 buffer
Experimental: Exemplary ADC samples (80 μL each, histidine/pH 6.0 buffer) were frozen at −80° C. for 2 hours. The samples were then placed at 22° C. for 30 min to remove visible ice. This completed one cycle. Sampling was performed at the starting point and after 1, 4, and 10 freeze-thaw cycles. 15 μL of each ADC was sampled each time, 7.5 μL of which was used to analyze DAR, aggregation, and concentration. Before analysis, all samples were stored at −80° C.

[2] = SEC analysis - aggregation / percent monomer; format: physicochemical; conditions: absorbance at 280 nm, ADC batch
Experimental: The peak area absorbance at 280 nm was determined for the high molecular weight and monomeric conjugate components by area under the curve integration.

[3] = HPLC analysis - free drug; format: physicochemical; conditions: residual unconjugated linker-payload in ADC batch
Experimental: Conjugate was precipitated with 10 volumes of acetonitrile on ice for 2 hours and spun down. Supernatants containing residual unconjugated payload were then injected onto an Agilent Poroshell 120 SB-C18120A column (4.6×100 mm, 2.7 μm) and eluted with a gradient of 45% B to 70% B over 10 min at RT. Mobile phase A was 100% water, mobile phase B was 100% acetonitrile, and the flow rate was 0.6 mL/min with detection at 252 nm. The amount of residual free drug was quantified via UV detection with comparison to the external standard curve of unconjugated linker-payload.

[4] = tested on: MOLP8 multiple myeloma xenograft; experiment: MOLP8 xenograft model, anti-BCMA ADCs (Study 1); format: in vivo, mouse; conditions: MOLP8 xenograft Study 1, conditions as OPM2 model (single intravenous dose 20 mg/kg)
Experimental: Methods: Anti-tumor activity of exemplary anti-BCMA ADCs was assessed in an OPM2 multiple myeloma xenograft model. OPM2 cells were cultured and expanded for inoculation according to ATCC recommendations. […] Female CB17-Scid mice were inoculated subcutaneously with 100 μL of cell suspension on their right flanks and monitored for tumor growth. When the mean tumor volume reached ˜150 mm^3, mice were randomized into treatment groups and given a single intravenous dose (via tail vein) of 2.0 mg/mL dosing solution at 10 mL/kg for a total dose of 20 mg/kg. Mice were weighed and their tumors were measured two to three times/week. Animals with tumors exceeding 2000 mm^3 or 20 mm in any dimension were taken off study and appropriately euthanized according to IACUC protocol. Upon euthanasia, tumor samples and serum were collected and banked for subsequent analyses.
Methods: To further evaluate the anti-tumor activity of exemplary anti-BCMA ADCs in vivo, a screen of the same ADCs was performed in a second multiple myeloma xenograft model, MOLP8. […] All experimental conditions in this study were identical to those used for the OPM2 model with the exception of the model itself and the number of days from tumor inoculation to dose administration (day of dosing is indicated by an arrow in FIG. 15).

[5] = tested on: OPM2 multiple myeloma xenograft; experiment: OPM2 xenograft model, anti-BCMA ADCs (Studies 1 and 2); format: in vivo, mouse; conditions: single intravenous dose 20 mg/kg; for Tumor growth inhibition (% ± SEM, day 28): OPM2 xenograft Study 2, CB17-Scid mice; for Tumor growth inhibition (% ± SEM, day 30): OPM2 Study 1, ADC
Experimental: Methods: Anti-tumor activity of exemplary anti-BCMA ADCs was assessed in an OPM2 multiple myeloma xenograft model. OPM2 cells were cultured and expanded for inoculation according to ATCC recommendations. Cells were pelleted and resuspended in a solution of serum-free RPMI-1640 medium (50% v/v) and Matrigel (50% v/v) at a density of 5.0×10^7 cells/mL. Female CB17-Scid mice were inoculated subcutaneously with 100 μL of cell suspension on their right flanks and monitored for tumor growth. When the mean tumor volume reached ˜150 mm^3, mice were randomized into treatment groups and given a single intravenous dose (via tail vein) of 2.0 mg/mL dosing solution at 10 mL/kg for a total dose of 20 mg/kg. Mice were weighed and their tumors were measured two to three times/week. Animals with tumors exceeding 2000 mm^3 or 20 mm in any dimension were taken off study and appropriately euthanized according to IACUC protocol. Upon euthanasia, tumor samples and serum were collected and banked for subsequent analyses.
Conjugates of AB213, AB214, and AB215 were assessed in a first experiment (FIG. 11; Table 30); conjugates of AB212, AB216, AB217, and AB218 were assessed in a second experiment (FIG. 12; Table 31).
In the second experiment, to evaluate the antibody-specific activity of ADCs incorporating exemplary anti-BCMA antibodies, a ‘non-targeting’ ADC was generated by conjugating the ADL1-D2 linker-payload to the anti-HER2 antibody trastuzumab (AB185) at an average DAR of ˜4.0.

[6] = Accelerated stability testing at 37° C. (aggregation, concentration, DAR); format: physicochemical; conditions: 20 mM Histidine/HOAc pH 6.0
Experimental: (§1) Exemplary anti-BCMA ADCs (˜1 mg each in Eppendorf tubes, ˜4-5 mg/mL) were centrifuged and measured by UV absorption (NanoDrop) at 280 nm to determine protein concentrations. Samples were then incubated in a 37° C. water bath and sampled at four time points, 0 (freshly prepared), 1 day, 2 days, and 4 days. Samples taken at different time points were stored at −80° C. until the last sampling was completed. After thawing at 22° C., samples were analyzed with SEC and hydrophobic interaction chromatography (HIC) for quantification of antibody aggregation and DAR.

[7] = HIC analysis - DAR of the ADC batch; format: physicochemical; conditions: for Drug-to-antibody ratio (DAR): HIC; for HIC DAR: batch used in cell viability analysis (Table 26)
Experimental: as §1

MOLP8 cells = experiment: CellTiter-Glo cell viability, MOLP8; format: cell-based, human; conditions: for GI50: MOLP8 cells, 6 days, CellTiter-Glo, read-out: GI50 (nM) MOLP8.1
MM1.S cells = experiment: CellTiter-Glo cell viability, MM1.S; format: cell-based, human; conditions: for GI50: MM1.S cells, 6 days, CellTiter-Glo, read-out: GI50 (nM) MM1S.1

Row | Molecule | Aggregation (%) ([1]; After 6 freeze-thaw) | Concentration ([1]; After 6 freeze-thaw) [µg/mL] | HIC DAR ([1]; After 6 freeze-thaw) | Percent Monomer [2] [%] | Free Drug (%) [3] [%] | Tumor growth inhibition (% ± SEM, day 21) [4] [%] | Aggregation (%) ([6]; 0 d at 37° C.) | Concentration ([6]; 0 d at 37° C.) [µg/mL] | DAR (HIC) ([6]; 0 d at 37° C.) | Aggregation (%) ([6]; 1 d at 37° C.) | Concentration ([6]; 1 d at 37° C.) [µg/mL] | DAR (HIC) ([6]; 1 d at 37° C.) | Aggregation (%) ([6]; 2 d at 37° C.) | Concentration ([6]; 2 d at 37° C.) [µg/mL] | DAR (HIC) ([6]; 2 d at 37° C.) | Aggregation (%) ([6]; 4 d at 37° C.) | Concentration ([6]; 4 d at 37° C.) [µg/mL] | DAR (HIC) ([6]; 4 d at 37° C.) | Drug-to-antibody ratio (DAR) ([7]; batch used in MOLP8 Study 1) | HIC DAR [7] | also measured
1 | AB217-ADL1-D2-02 (conjugate) heavy: QVQLVQSGAEVKKPGSSVKVSCKASGGTFTNYWIHWVRQAPGQGLEWMGATYRSHSDTYYAQKYKSRVTITADKSTSTAYMELSSLRSEDTAVYYCARGAVYHGYDVIDNWGQGTLVTVSS[omitted - human IgG1 constant region] light: DIQMTQSPSSLSASVGDRVTITCRASQSISSYINWYQQKPGKAPKLLIYATSNLQSGVPSRFSGSGSGTDFTLTISSLQPEDFATYYCQQYRRIPWTFGQGTKLEIKRTVAAPSVFIFPPSDEQLKSGTASVVCLLNNFYPREAKVQWKVDNALQSGNSQESVTEQDSKDSTYSLSSTLTLSKADYEKHKVYACEVTHQGLSSPVTKSFNRGEC | 1.91 | 4240 | 3.78 | 97.88 | 0.5 | 62.95 ± 8.99 | 1.91 | 4240 | 3.78 | 2.20 | 4180 | 3.77 | 2.22 | 4210 | 3.71 | 2.46 | 4470 | 3.75 | 3.7 | 3.7 | Aggregation (%) ([1]; Before freeze-thaw): 2.12%; Concentration ([1]; Before freeze-thaw): 4250 µg/mL; HIC DAR ([1]; Before freeze-thaw): 3.70; Tumor growth inhibition (% ± SEM, day 28) [5]: 61.69 ± 10.68%; Drug-to-antibody ratio (DAR) ([7]; batch used in OPM2 Study 2): 3.7
2 | AB214-ADL1-D2-02 (conjugate) heavy: QVQLVQSGAEVKKPGSSVKVSCKASGGTFSNYWIHWVRQAPGQGLEWMGATYRSQSDTYYNQKYKSRVTITADKSTSTAYMELSSLRSEDTAVYYCARGAVYHGYDVIDNWGQGTLVTVSS[omitted - human IgG1 constant region] light: DIQMTQSPSSLSASVGDRVTITCRASQSISSYLNWYQQKPGKAPKLLIYATSNLQIGVPSRFSGSGSGTDFTLTISSLQPEDFATYYCQQYRRIPWTFGQGTKLEIKRTVAAPSVFIFPPSDEQLKSGTASVVCLLNNFYPREAKVQWKVDNALQSGNSQESVTEQDSKDSTYSLSSTLTLSKADYEKHKVYACEVTHQGLSSPVTKSFNRGEC | – | – | – | 100 | 0.5 | 49.27 ± 20.79 | 0.58 | 4580 | 4.30 | 0.87 | 4480 | 4.30 | 1.18 | 4530 | 4.26 | 1.01 | 4700 | 4.61 | 4.12 | 4.12 | LD50 (nM) MOLP8.1 (MOLP8 cells): 78.966 nM; GI50 (MOLP8 cells): 5.02 nM; LD50 (nM) MM1S.1 (MM1.S cells): 373.387 nM; GI50 (MM1.S cells): 0.265 nM; Tumor growth inhibition (% ± SEM, day 30) [5]: 82.91 ± 4.07%
3 | AB218-ADL1-D2-02 (conjugate) heavy: QVQLVQSGAEVKKPGSSVKVSCKASGGTFSNYWIHWVRQAPGQGLEWMGATYRSQSTTYYNQKFKSRVTITADKSTSTAYMELSSLRSEDTAVYYCARGAVYHGYDVIDNWGQGTLVTVSS[omitted - human IgG1 constant region] light: DIQMTQSPSSLSASVGDRVTITCRASQSISSYLNWYQQKPGKAPKLLIYATSNLQIGVPSRFSGSGSGTDFTLTISSLQPEDFATYYCQQFRRLPWTFGQGTKLEIKRTVAAPSVFIFPPSDEQLKSGTASVVCLLNNFYPREAKVQWKVDNALQSGNSQESVTEQDSKDSTYSLSSTLTLSKADYEKHKVYACEVTHQGLSSPVTKSFNRGEC | 0.39 | 4860 | 3.75 | 99.9 | 0.26 | 26.94 ± 25.37 | 0.39 | 4860 | 3.75 | 0.60 | 5260 | 3.71 | 0.95 | 5390 | 3.72 | 1.71 | 5090 | 3.71 | 3.77 | 3.77 | Aggregation (%) ([1]; Before freeze-thaw): 0.10%; Concentration ([1]; Before freeze-thaw): 4680 µg/mL; HIC DAR ([1]; Before freeze-thaw): 3.77; Tumor growth inhibition (% ± SEM, day 28) [5]: 83.00 ± 8.44%; Drug-to-antibody ratio (DAR) ([7]; batch used in OPM2 Study 2): 3.77
4 | AB215-ADL1-D2-02 (conjugate) heavy: QVQLVQSGAEVKKPGSSVKVSCKASGGTFTNYWIHWVRQAPGQGLEWMGGTYRSHSTTYYNQKFKSRVTITADKSTSTAYMELSSLRSEDTAVYYCARGAVYHGYDVIDNWGQGTLVTVSS[omitted - human IgG1 constant region] light: DIQMTQSPSSLSASVGDRVTITCRASQSISSYLNWYQQKPGKAPKLLIYATSNLQIGVPSRFSGSGSGTDFTLTISSLQPEDFATYYCQQYRRIPWTFGQGTKLEIKRTVAAPSVFIFPPSDEQLKSGTASVVCLLNNFYPREAKVQWKVDNALQSGNSQESVTEQDSKDSTYSLSSTLTLSKADYEKHKVYACEVTHQGLSSPVTKSFNRGEC | – | – | – | 99.13 | 0.35 | 52.06 ± 24.38 | 1.25 | 5280 | 4.80 | 1.72 | 4990 | 4.74 | 1.59 | 5210 | 4.77 | 2.14 | 5690 | 5.01 | 3.96 | – | LD50 (nM) MOLP8.1 (MOLP8 cells): 111.791 nM; GI50 (MOLP8 cells): 13.6 nM; LD50 (nM) MM1S.1 (MM1.S cells): 272.647 nM; GI50 (MM1.S cells): 0.843 nM; Tumor growth inhibition (% ± SEM, day 30) [5]: 87.96 ± 3.18%
